# B1: pyrene-labeled apoE3([…]) single Cys variant A29C (endogenous Cys112 replaced by Ser) (natural protein)
# chain: not shown
# modifications: N-(1-pyrene)maleimide on Cys29
# B2: pyrene-labeled apoE4([…]) single Cys variant A256C (natural protein)
# chain: not shown
# modifications: N-(1-pyrene)maleimide on Cys256
# B3: pyrene-labeled apoE3([…]) single Cys variant A62C (endogenous Cys112 replaced by Ser) (natural protein)
# chain: not shown
# modifications: N-(1-pyrene)maleimide on Cys62
# B4: pyrene-labeled apoE3([…]) single Cys variant at A102 (endogenous Cys112 replaced by Ser) (natural protein)
# chain: not shown
# modifications: N-(1-pyrene)maleimide on Cys102
# B5: pyrene-labeled apoE3([…]) single Cys variant A216C (endogenous Cys112 replaced by Ser) (natural protein)
# chain: not shown
# modifications: N-(1-pyrene)maleimide on Cys216
# B6: pyrene-labeled apoE3([…]) single Cys variant A256C (endogenous Cys112 replaced by Ser) (natural protein)
# chain: not shown
# modifications: N-(1-pyrene)maleimide on Cys256
# B7: pyrene-labeled apoE4([…]) single Cys variant A29C (natural protein)
# chain: not shown
# modifications: N-(1-pyrene)maleimide on Cys29
# B8: pyrene-labeled apoE4([…]) single Cys variant A62C (natural protein)
# chain: not shown
# modifications: N-(1-pyrene)maleimide on Cys62
# B9: pyrene-labeled apoE4([…]) single Cys variant at A102 (natural protein)
# chain: not shown
# modifications: N-(1-pyrene)maleimide on Cys102
# B10: pyrene-labeled apoE4([…]) single Cys variant A216C (natural protein)
# chain: not shown
# modifications: N-(1-pyrene)maleimide on Cys216
# Target: the molecule itself
# Assay: pyrene excimer fluorescence
row,Protein,e/m ratio (fluorescence intensity at 460 nm / 375 nm)
1,B1,0.46
2,B2,2.22
3,B3,0.32
4,B4,0.29
5,B5,0.91
6,B6,1.45
7,B7,1.33
8,B8,0.67
9,B9,1.96
10,B10,1.56

# — PMC8211829 (Biochimica et biophysica acta. Biomembranes, 2021)
